Data published in patent EP4806912A1, “DUAL AGONIST COMPOUND” (Chengdu Aoda Biotechnology Co., Ltd, priority 2023, dated 2025).
At least one compound was matched to its structure with a doubt left. Where a SMILES comes first, the peptide text is derived from it. [ ]: non-standard residue; d: D form. The star is where a group is joined. ξ: configuration not given here. X3 = O=C(O)CCCCCCCCCCCCCCCCCCC(=O)N[C@@H](CCCCC(=O)NCCOCCOCCOCCOCCOCC(=O)*)C(=O)O; X2 = O=C(O)CCCCCCCCCCCCCCCCCCC(=O)N[C@@H](CCCC(=O)NCCOCCOCCOCCOCCOCC(=O)*)C(=O)O; X1 = O=C(O)CCCCCCCCCCCCCCCCCCC(=O)N[C@@H](CCC(=O)NCCOCCOCCOCCOCCOCC(=O)*)C(=O)O; ξαMePhe(2-F) = CC(N)(Cc1ccccc1F)C(=O)O; ξαMeF = CC(N)(Cc1ccccc1)C(=O)O; Aib = CC(C)(N)C(=O)O; Ava = NCCCCC(=O)O

Tests used:
GCG-R = target: T1, GCG-R (Homo sapiens, UniProt P47871); assay: GCG activity test (cAMP, chemiluminescence, CHO-K1 cell line stably expressing GCG-R); type: cell-based; conditions: relative luminescence units, read-out: GCG activity [EC50(nmol)]
T1 construct: expressed in transfected cells; host or cells: CHO-K1
Method: (§1) Upon stimulation by a specific agonist, GCG-R activates the intracellular adenylate cyclase signaling pathway, resulting in an increase in cAMP levels and ultimately leading to insulin production and secretion. A cell line stably transfected with GCG-R was stimulated with test compounds, thereby rapidly increasing intracellular cAMP levels. The relative luminescence units (RLU) of cells stimulated at various concentrations were measured by a chemiluminescence method, and the EC50 value of the agonist was calculated accordingly. This activity assay method is currently a commonly used method for evaluating GCG receptor agonist activity both domestically and internationally.
A CHO-K1 cell line stably expressing GCG-R was used. The stable cells were stimulated with agonists at different concentrations, and the relative luminescence units after stimulation at each concentration were measured to calculate the EC50 value of the agonist.

GLP-1R = target: T2, GLP-1R (Homo sapiens, UniProt P43220); assay: GLP-1 activity test (cAMP, chemiluminescence, CHO-K1 cell line stably expressing GLP-1R); type: cell-based; conditions: relative luminescence units, read-out: GLP-1 activity [EC50(pmol)]
T2 construct: expressed in transfected cells; host or cells: CHO-K1
Method: as §1, with “GLP-1R” for “GCG-R”, “test” for “assay”, “GLP-1” for “GCG”
A CHO-K1 cell line stably expressing GLP-1R was used. The stable cells were stimulated with agonists at different concentrations, and the relative luminescence units after stimulation at each concentration were measured to calculate the EC50 value of the agonist.

T2 sequence (P43220 24-463, species assumed): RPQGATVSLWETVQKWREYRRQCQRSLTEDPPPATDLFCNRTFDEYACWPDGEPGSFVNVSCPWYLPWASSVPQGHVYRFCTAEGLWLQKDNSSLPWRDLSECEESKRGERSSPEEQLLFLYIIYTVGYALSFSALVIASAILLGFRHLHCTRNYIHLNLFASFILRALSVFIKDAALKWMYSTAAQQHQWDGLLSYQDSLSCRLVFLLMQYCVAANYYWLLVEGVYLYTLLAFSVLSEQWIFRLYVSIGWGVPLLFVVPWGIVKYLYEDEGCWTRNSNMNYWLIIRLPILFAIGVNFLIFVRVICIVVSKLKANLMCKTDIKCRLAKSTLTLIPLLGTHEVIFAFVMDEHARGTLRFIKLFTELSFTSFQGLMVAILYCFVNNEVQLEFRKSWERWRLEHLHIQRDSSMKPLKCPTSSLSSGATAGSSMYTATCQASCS
T1 sequence (P47871 26-477, species assumed): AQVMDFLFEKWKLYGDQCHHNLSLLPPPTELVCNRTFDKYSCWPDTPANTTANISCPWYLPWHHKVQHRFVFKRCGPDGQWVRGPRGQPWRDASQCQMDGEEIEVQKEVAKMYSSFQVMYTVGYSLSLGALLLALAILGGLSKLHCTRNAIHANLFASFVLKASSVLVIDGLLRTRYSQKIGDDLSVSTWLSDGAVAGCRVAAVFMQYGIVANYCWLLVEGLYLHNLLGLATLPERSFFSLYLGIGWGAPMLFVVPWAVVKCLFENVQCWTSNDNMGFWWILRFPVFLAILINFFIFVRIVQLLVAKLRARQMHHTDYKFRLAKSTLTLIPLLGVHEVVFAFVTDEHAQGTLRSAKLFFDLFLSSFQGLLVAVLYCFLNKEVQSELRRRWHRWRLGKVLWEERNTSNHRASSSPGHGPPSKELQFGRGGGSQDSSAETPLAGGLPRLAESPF

| Compound | EC50 (GCG-R) [nM] | EC50 (GLP-1R) [nM] |
| --- | --- | --- |
| CC(C)C[C@H](NC(=O)[C@H](CC(C)C)NC(=O)[C@H](Cc1c[nH]c2ccccc12)NC(=O)[C@H](CCC(=O)O)NC(=O)[C@@H](NC(=O)[C@H](Cc1ccccc1)NC(=O)[C@H](CCC(=O)O)NC(=O)[C@H](CCCCNC(=O)COCCOCCOCCOCCOCCNC(=O)CC[C@H](NC(=O)CCCCCCCCCCCCCCCCCCC(=O)O)C(=O)O)NC(=O)[C@H](C)NC(=O)[C@H](CCCCN)NC(=O)[C@H](CCCCN)NC(=O)[C@H](CCC(=O)O)NC(=O)[C@H](CC(=O)O)NC(=O)[C@H](CC(C)C)NC(=O)[C@H](Cc1ccc(O)cc1)NC(=O)[C@H](CCCCN)NC(=O)[C@H](CO)NC(=O)[C@H](Cc1ccc(O)cc1)NC(=O)[C@H](CC(=O)O)NC(=O)[C@H](CO)NC(=O)[C@@H](NC(=O)[C@H](Cc1ccccc1)NC(=O)[C@@H](NC(=O)CNC(=O)[C@H](CCC(N)=O)NC(=O)C(C)(C)NC(=O)[C@@H](N)Cc1c[nH]cn1)[C@@H](C)O)[C@@H](C)O)C(C)C)C(=O)N[C@@H](CCC(=O)O)C(=O)NCCCCC(=O)N1CCC[C@H]1C(=O)N[C@@H](CO)C(=O)N[C@@H](CO)C(=O)NCC(=O)N[C@@H](C)C(=O)N1CCC[C@H]1C(=O)N1CCC[C@H]1C(=O)N1CCC[C@H]1C(=O)N[C@@H](CO)C(N)=O [Compound 1] (H-H[Aib]QGTFTSDYSKYLDEKKAK(X1)EFVEWLLE[Ava]PSSGAPPPS-NH2) | 2.3 | 0.0986 |
| CC(C)C[C@H](NC(=O)[C@H](CC(C)C)NC(=O)[C@H](Cc1c[nH]c2ccccc12)NC(=O)[C@H](CCC(=O)O)NC(=O)[C@@H](NC(=O)[C@H](Cc1ccccc1)NC(=O)[C@H](CCC(=O)O)NC(=O)[C@H](CCCCNC(=O)COCCOCCOCCOCCOCCNC(=O)CCC[C@H](NC(=O)CCCCCCCCCCCCCCCCCCC(=O)O)C(=O)O)NC(=O)[C@H](C)NC(=O)[C@H](CCCCN)NC(=O)[C@H](CCCCN)NC(=O)[C@H](CCC(=O)O)NC(=O)[C@H](CC(=O)O)NC(=O)[C@H](CC(C)C)NC(=O)[C@H](Cc1ccc(O)cc1)NC(=O)[C@H](CCCCN)NC(=O)[C@H](CO)NC(=O)[C@H](Cc1ccc(O)cc1)NC(=O)[C@H](CC(=O)O)NC(=O)[C@H](CO)NC(=O)[C@@H](NC(=O)[C@H](Cc1ccccc1)NC(=O)[C@@H](NC(=O)CNC(=O)[C@H](CCC(N)=O)NC(=O)C(C)(C)NC(=O)[C@@H](N)Cc1c[nH]cn1)[C@@H](C)O)[C@@H](C)O)C(C)C)C(=O)N[C@@H](CCC(=O)O)C(=O)NCCCCC(=O)N1CCC[C@H]1C(=O)N[C@@H](CO)C(=O)N[C@@H](CO)C(=O)NCC(=O)N[C@@H](C)C(=O)N1CCC[C@H]1C(=O)N1CCC[C@H]1C(=O)N1CCC[C@H]1C(=O)N[C@@H](CO)C(N)=O [Compound 2] (H-H[Aib]QGTFTSDYSKYLDEKKAK(X2)EFVEWLLE[Ava]PSSGAPPPS-NH2) | 2.5 | 0.0956 |
| CC(C)C[C@H](NC(=O)[C@H](CC(C)C)NC(=O)[C@H](Cc1c[nH]c2ccccc12)NC(=O)[C@H](CCC(=O)O)NC(=O)[C@@H](NC(=O)[C@H](Cc1ccccc1)NC(=O)[C@H](CCC(=O)O)NC(=O)[C@H](CCCCNC(=O)COCCOCCOCCOCCOCCNC(=O)CCCC[C@H](NC(=O)CCCCCCCCCCCCCCCCCCC(=O)O)C(=O)O)NC(=O)[C@H](C)NC(=O)[C@H](CCCCN)NC(=O)[C@H](CCCCN)NC(=O)[C@H](CCC(=O)O)NC(=O)[C@H](CC(=O)O)NC(=O)[C@H](CC(C)C)NC(=O)[C@H](Cc1ccc(O)cc1)NC(=O)[C@H](CCCCN)NC(=O)[C@H](CO)NC(=O)[C@H](Cc1ccc(O)cc1)NC(=O)[C@H](CC(=O)O)NC(=O)[C@H](CO)NC(=O)[C@@H](NC(=O)[C@H](Cc1ccccc1)NC(=O)[C@@H](NC(=O)CNC(=O)[C@H](CCC(N)=O)NC(=O)C(C)(C)NC(=O)[C@@H](N)Cc1c[nH]cn1)[C@@H](C)O)[C@@H](C)O)C(C)C)C(=O)N[C@@H](CCC(=O)O)C(=O)NCCCCC(=O)N1CCC[C@H]1C(=O)N[C@@H](CO)C(=O)N[C@@H](CO)C(=O)NCC(=O)N[C@@H](C)C(=O)N1CCC[C@H]1C(=O)N1CCC[C@H]1C(=O)N1CCC[C@H]1C(=O)N[C@@H](CO)C(N)=O [Compound 3] (H-H[Aib]QGTFTSDYSKYLDEKKAK(X3)EFVEWLLE[Ava]PSSGAPPPS-NH2) | 2.5 | 0.104 |
| CC(C)C[C@H](NC(=O)[C@H](CC(C)C)NC(=O)[C@H](Cc1c[nH]c2ccccc12)NC(=O)[C@H](CCC(=O)O)NC(=O)[C@@H](NC(=O)[C@H](Cc1ccccc1)NC(=O)[C@H](CCC(=O)O)NC(=O)[C@H](CCCCNC(=O)COCCOCCOCCOCCOCCNC(=O)CC[C@H](NC(=O)CCCCCCCCCCCCCCCCCCC(=O)O)C(=O)O)NC(=O)[C@H](C)NC(=O)[C@H](CCCCN)NC(=O)[C@H](CCCCN)NC(=O)[C@H](CCC(=O)O)NC(=O)[C@H](CC(=O)O)NC(=O)[C@H](CC(C)C)NC(=O)[C@H](Cc1ccc(O)cc1)NC(=O)[C@H](CCCCN)NC(=O)[C@H](CO)NC(=O)[C@H](Cc1ccc(O)cc1)NC(=O)[C@H](CC(=O)O)NC(=O)[C@H](CO)NC(=O)[C@@H](NC(=O)C(C)(Cc1ccccc1F)NC(=O)[C@@H](NC(=O)CNC(=O)[C@H](CCC(N)=O)NC(=O)C(C)(C)NC(=O)[C@@H](N)Cc1c[nH]cn1)[C@@H](C)O)[C@@H](C)O)C(C)C)C(=O)N[C@@H](CCC(=O)O)C(=O)NCCCCC(=O)N1CCC[C@H]1C(=O)N[C@@H](CO)C(=O)N[C@@H](CO)C(=O)NCC(=O)N[C@@H](C)C(=O)N1CCC[C@H]1C(=O)N1CCC[C@H]1C(=O)N1CCC[C@H]1C(=O)N[C@@H](CO)C(N)=O (stereo partly shown) [Compound 9] (H-H[Aib]QGT[ξαMePhe(2-F)]TSDYSKYLDEKKAK(X1)EFVEWLLE[Ava]PSSGAPPPS-NH2) | 1.6 | 0.0807 |
| CC(C)C[C@H](NC(=O)[C@H](CC(C)C)NC(=O)[C@H](Cc1c[nH]c2ccccc12)NC(=O)[C@H](CCC(=O)O)NC(=O)[C@@H](NC(=O)[C@H](Cc1ccccc1)NC(=O)[C@H](CCC(=O)O)NC(=O)[C@H](CCCCNC(=O)COCCOCCOCCOCCOCCNC(=O)CC[C@H](NC(=O)CCCCCCCCCCCCCCCCCCC(=O)O)C(=O)O)NC(=O)[C@H](C)NC(=O)[C@H](CCCCN)NC(=O)[C@H](CCCCN)NC(=O)[C@H](CCC(=O)O)NC(=O)[C@H](CC(=O)O)NC(=O)[C@H](CC(C)C)NC(=O)[C@H](Cc1ccc(O)cc1)NC(=O)[C@H](CCCCN)NC(=O)[C@H](CO)NC(=O)[C@H](Cc1ccc(O)cc1)NC(=O)[C@H](CC(=O)O)NC(=O)[C@H](CO)NC(=O)[C@@H](NC(=O)C(C)(Cc1ccccc1)NC(=O)[C@@H](NC(=O)CNC(=O)[C@H](CCC(N)=O)NC(=O)C(C)(C)NC(=O)[C@@H](N)Cc1c[nH]cn1)[C@@H](C)O)[C@@H](C)O)C(C)C)C(=O)N[C@@H](CCC(=O)O)C(=O)NCCCCC(=O)N1CCC[C@H]1C(=O)N[C@@H](CO)C(=O)N[C@@H](CO)C(=O)NCC(=O)N[C@@H](C)C(=O)N1CCC[C@H]1C(=O)N1CCC[C@H]1C(=O)N1CCC[C@H]1C(=O)N[C@@H](CO)C(N)=O (stereo partly shown) [Compound 5] (H-H[Aib]QGT[ξαMeF]TSDYSKYLDEKKAK(X1)EFVEWLLE[Ava]PSSGAPPPS-NH2) | 2.4 | 0.0852 |
